# Data published in the supplement of paper PMC11417369.
# ± gives the standard deviation of the averaged measurements. This is one part of the list.
# System: PfAP2-G AP2 domain (GST-tagged)
# Assay: gcPBM binding intensity (ln(normalized median fluorescence intensity)); higher = stronger DNA binding
# How it was run: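 Binding intensity is defined as the maximum Masliner-normalised natural-log median intensity across replicate spots for either probe orientation. It was measured on an Agilent 4 × 180k array of primer-extended double-stranded 36-bp intergenic genomic probes and negative controls, to which GST-tagged P. falciparum DNA-binding domains made in E. coli were applied for 1 h in 1× PBS with 1% milk, 0.2 mg/ml BSA, 0.5% salmon testes DNA and 0.03% Triton X-100. Detection was by Alexa488 anti-GST antibody and scanning at 488 nm.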
row,Sequence,gcPBM binding intensity (ln)
1,TAAATTTGTGTTATTAAAAAAATGGTTTAAAAATGT [XGTACX_negctrl_site352],10.045 ± 0.007
2,TTTCTTACAAAAGCTAGAGTTTTTTTTTTTTTTTTT [XGTACX_negctrl_site341],10.19 ± 0.049
3,TGTTTTTATAAAATAAATAAATATATATATATATAT [CACACA_negctrl_site502],10 ± 0.69
4,AAATATACAATATTCACACAAAAAAATACATTACAA [CACACA_site5004],9.98 ± 0.16
5,ATATATTTATATTGTACACACATTTATGCATATATA [CACACA_site7502],11.4 ± 0.77
6,ATCCTTAATATGAACACACAAATATATTGCACATAT [CACACA_site6230],10.19 ± 0.085
7,AGAATAAATATGCACACATGCATATATTTTTACACT [TGCATGCA_site893],9.95 ± 0.014
8,TTAGTCCATATTTTTGCACACCATTTTTTTTTTTTT [CACACA_site3927],10.7 ± 0.39
9,GTATCAAAAGAATACACACACACATACAGATATATA [CACACA_site5975],10.1 ± 0.16
10,TGATATTATATATATACACACATGTATGTATTTATA [CACACA_site4874],9.98 ± 0.34
11,TTTATTATTTTAACGTGTACAAGGTATATAATATTC [XGTACX_site5241],11.3 ± 0.8
12,TAGGTAAATGCAAATTGGTTTAAATCAAAATATAAA [XGTACX_negctrl_site250],9.89 ± 0.071
13,ATAAACAAACATAAATCTGATTTTAATTTTTTTAAG [CACACA_negctrl_site313],9.545 ± 0.064
14,TAGGGTAGTTATAATTGTACTTTTCTCCAAAAAAAA [XGTACX_site7321],11.3 ± 0.81
15,TTTTTGTTTTTTTGTTTATCGTTCGTGACTACATGA [TGCATGCA_negctrl_site124],10.2 ± 0.39
16,GAAATCTAAATAGAAACACACATATATATATATATA [CACACA_site3863],9.8 ± 0.29
17,TTATATTTTCTCCGCGTGCACATATGTATACTATAC,10.7 ± 0.26
18,TACATATTTTTATATACACACAATAATTACTATAAA [CACACA_site6879],10 ± 0.16
19,AATTTTAATTATATCACACATAATATATACCAAAAA [CACACA_site6011],10.2 ± 0.36
20,TTTAATACTTTTTTCTGTACACACTTGATTTACTAT [XGTACX_site5925],11.5 ± 0.61
21,AAAAAAAAAAGACACACACACACACGGAGATATATA [CACACA_site6216],10.1 ± 0.22
22,AAAATACATAAACGTTCACACATTGAAGATCACAAG [CACACA_site5347],9.95 ± 0.042
23,TAGGTACATAAATTGGTGCAAAGTGTACATATATAT,11.6 ± 0.92
24,AAAAATACAATTTTCTTGCACTTTGTTGCATTGTAA,9.81 ± 0.11
25,AACATATACACGAACACACACACATATAAATAAATA [CACACA_site6380],10.3 ± 0.37
